# Experimental data taken from PubChem BioAssay AID686978 (National Center for Advancing Translational Sciences (NCATS), 2013).
# About 64,000 (15%) of roughly 420,000 compounds were called active. The inconclusive results got no clear call from the source; some entries with a clear call stand among them for comparison. Calls come from the whole dose curve; as a rule, active = well fitted inhibition curve with a large enough effect; inconclusive = small, poorly fitted or top-dose-only effect; inactive = flat fitted curve, though single readings scatter. No potency is given beside an inconclusive call; the fits are too rough.
# Test: qHTS for Inhibitors of human tyrosyl-DNA phosphodiesterase 1 (TDP1): qHTS in cells in absence of CPT; note: nearly all actives have a fitted effect of over 55% in size
# Conditions: DT40 Tdp1-/- hTDP1 cells, no CPT, ATP luminescence, 48 h; activity change, negative = growth inhibition: at 46.2 µM (top of the series) unless noted
# Outline: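 Compound effects on proliferation are scored in DT40 Tdp1-/-;hTDP1 cells in the absence of CPT. ATP levels (CellTiter-Glo luminescence) are recorded after a ≥48 hr, 37 °C incubation.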
# % is set by controls: 0 for no effect and ±100 for the full control effect; potency is the fitted concentration of half-maximal effect; tags give direction and shape of the fitted curve.
Structure (SMILES),Potency,"activity change, negative = growth inhibition"
COc1ccccc1-c1ccc2ncnc(NCc3cnc(C)cn3)c2c1,active: 18.4 µM,
CCC(=O)N1CCCc2cc(S(=O)(=O)N3CCC(C(=O)Nc4cccc(Cl)c4)CC3)ccc21,"inconclusive [inhibitor, single point]",
Cc1ccc(C(=O)Nc2ccc3oc(-c4cc(Br)ccc4Cl)nc3c2)cc1,"inconclusive [inhibitor, full curve, poor fit]",
Nc1ccc2nc(SCC(=O)N3CCOCC3)sc2c1,inactive,
O=C(NCC1CCCO1)c1ccc(NS(=O)(=O)c2ccccc2)cc1 (stereo unspecified),inactive,
Cc1ccccc1SCC(=O)OCC(=O)Nc1sccc1C(N)=O,,inconclusive: -35.3% [inhibitor]
CCc1ccc(NC(=O)CC2C(=O)N(c3ccc(OC)cc3)C(=O)N2Cc2cccs2)cc1 (stereo unspecified),"inconclusive [inhibitor, full curve, poor fit]",
CC(C)(C)c1ccc(/C=C/C(=O)N2CCOCC2)cc1,"inconclusive [inhibitor, single point]",
O=C(O)C1CC=CCC1C(=O)N1CCCC1 (stereo unspecified),"inconclusive [inhibitor, full curve, poor fit]",
COc1ccccc1C(=O)C1CCCN(C(=O)c2cccnc2SC)C1 (stereo unspecified),"inconclusive [inhibitor, partial curve]",
O=c1cc2nc(-c3ccccc3)nc(SCCOc3ccc(Cl)cc3)n2[nH]1,"inconclusive [inhibitor, single point]",
O=C(c1ccccc1)c1nccc2ccccc12,inactive,
Cc1c(C(=O)Nc2nc(-c3ccccn3)cs2)oc2ccccc12,active: 3.66 µM,
Cc1nn2c(-c3ccco3)ccnc2c1-c1ccc(Cl)cc1,"inconclusive [inhibitor, single point]",
COc1ccc(C(=O)Nc2ccc3oc(-c4cc(Cl)ccc4Cl)nc3c2)cc1Br,inactive,
CCOC(=O)c1cnc2c(C)cc(C)cc2c1Nc1ccccc1OCC,inactive,
Oc1c(/C=N/Nc2cccc3cccnc23)ccc2ccccc12,"inconclusive [inhibitor, partial curve]",
CCc1cc2c3c(c(=O)oc2cc1OC(C)C(=O)O)CCCC3 (stereo unspecified),inactive,
CNC(=O)C12N=CNN=C1N(C)C(=O)N2C (stereo unspecified),inactive,
CCOc1cccc(OCCOc2ccccc2[N+](=O)[O-])c1,"inconclusive [inhibitor, single point]",
Cc1cccc(C)c1NC(=O)CN1CCN(C(=O)c2cc(C3CC3)nn2-c2ccccc2)CC1,,inconclusive: -36.1% [inhibitor]
CCCCCCC(O)(c1ccc(OC)cc1)C(CN1CCOCC1)c1ccccc1 (stereo unspecified),"inconclusive [inhibitor, single point]",
COC(=O)c1ccccc1S(=O)(=O)NNC(=O)c1nn(C)c(=O)c2ccccc12,inactive,
CCC(C)NC(=O)C1c2ccccc2C(=O)N1Cc1ccc(F)cc1 (stereo unspecified),inactive,
CCOc1ccc(NC(=O)CC2C(=O)N(c3cccc(OC)c3)C(=O)N2CCOC)cc1 (stereo unspecified),inactive,
CCCCN(Cc1ccco1)S(=O)(=O)c1ccc(-c2ccc(=O)[nH]n2)s1,"inconclusive [inhibitor, single point]",

Structure (SMILES),Potency,"activity change, negative = growth inhibition"
CCc1cccc2c(-c3csc(=NC)n3C)c[nH]c12,"inconclusive [inhibitor, single point]",
CCOC(=O)C1CCN(CC(O)COc2ccc(C(C)(C)CC)cc2)CC1 (stereo unspecified),active: 18.4 µM,
O=C1c2ccccc2C(Nc2ccc(S(=O)(=O)N3CCCCC3)cc2)N1Cc1ccco1 (stereo unspecified),"inconclusive [inhibitor, single point]",
O=C(CCC(=O)N1CCN(c2ccc(F)cc2)CC1)c1ccc(Cl)cc1,"inconclusive [inhibitor, single point]",
C=CCNC(=S)NNC(=O)COc1ccc(Br)cc1,inactive,
COC(=O)c1c(NC(=O)/C=C/c2ccc(OC)cc2)sc2c1CCC2,inactive,
CCOC(=O)N1CCc2c(sc(NC(=O)CN3CCOCC3)c2C(=O)Nc2ccccc2)C1,"inconclusive [inhibitor, single point]",
O=C(Nc1ccccc1N1CCCCC1)c1cnccn1,,inconclusive: -30.6% [inhibitor]
CCOC(=O)c1cc(C)n(Cc2cccc(OC)c2OC)c1C,"inconclusive [inhibitor, partial curve]",
COc1cccc(CNC(=O)CCC2CCCN(C(=O)c3csc(C(C)C)n3)C2)c1 (stereo unspecified),,inconclusive: -30% [inhibitor]
CCOC(=O)Cn1c(-c2cccs2)cc2cc(Cl)ccc21,inactive,
c1ccc(CN2CCN(C(c3ccccc3)c3ccccc3)CC2)cc1,"inconclusive [inhibitor, single point]",
CC(C)c1cnc2c(c1SCC(=O)Nc1ccc(C(N)=O)cc1)c(=O)n(C)c(=O)n2C,"inconclusive [inhibitor, single point]",
Cc1nn(CC(=O)Nc2ccc3c(c2)OCCO3)c(C)c1[N+](=O)[O-],inactive,
CC1CCN(S(=O)(=O)c2cccc(S(=O)(=O)N3CCOCC3)c2)CC1,"inconclusive [inhibitor, partial curve, poor fit]",
COc1ccccc1NS(=O)(=O)c1ccc(C)c(NC(=O)c2c(C)noc2C)c1,,inconclusive: -32.1% [inhibitor]
O=C(C1CCN(C2CC(=O)N(c3cccc(Cl)c3)C2=O)CC1)N1CCCC1 (stereo unspecified),"inconclusive [inhibitor, single point]",
COc1ccc(OC)c(C(O)c2nc3ccccc3n2C(C)C)c1 (stereo unspecified),inactive,
O=C(Cn1c(=O)n(-c2ccccc2)c(=O)c2ccc(C(=O)NCc3ccc4c(c3)OCO4)cc21)Nc1ccc(F)c(Cl)c1,"inconclusive [inhibitor, single point]",
CN(CCCNC(=O)c1cc2c(=O)n(C)c3ccccc3c2s1)Cc1ccccc1,active: 14.6 µM,
O=C(c1cccc2ccccc12)N1CCN(CC2CC=CCC2)CC1 (stereo unspecified),"inconclusive [inhibitor, partial curve]",
CCN1C(=O)c2ccccc2Sc2ccc(NC(=O)c3cccc(C)c3)cc21,"inconclusive [inhibitor, single point]",
CCCCNc1ncnc2sc3c(c12)CCN(CCC)C3,"inconclusive [inhibitor, single point]",
CCCOc1ccc(C(=O)Nc2ccccc2[N+](=O)[O-])cc1,inactive,
O=C(CCC(=O)c1cccs1)NNC(=O)c1cccc(Cl)c1,active: 23.1 µM,
Cc1c(C(=O)N2CC(C)OC(C)C2)sc2nc(-c3ccc(F)cc3)cn12 (stereo unspecified),active: 18.4 µM,

Structure (SMILES),Potency,"activity change, negative = growth inhibition"
Brc1nnc2n1-c1ccccc1Sc1ccccc1-2,inactive,
Cc1ccc(NC(=O)Nc2cccs2)c(C)c1,,inconclusive: -33.5% [inhibitor]
Cc1cc2n(n1)C(c1c[nH]c3ccccc13)Nc1ccccc1-2 (stereo unspecified),"inconclusive [inhibitor, single point]",
COc1ccc2cc(/C=N/O)c(Cl)nc2c1,,inconclusive: -31.4% [inhibitor]
CN1CCN(c2ccc([N+](=O)[O-])cc2C(=O)Nc2ccccc2)CC1,"inconclusive [inhibitor, single point]",
CN(C)c1ccc(CC(=O)N2CCCC(c3cc(C(=O)Nc4ccc5c(c4)OCO5)no3)C2)cc1 (stereo unspecified),active: 13 µM,
CC(C)NC[C@H](O)COc1ccc(CC(N)=O)cc1,inactive,
CN(C)CCNc1oc(-c2cccc(Cl)c2)nc1C#N,"inconclusive [inhibitor, single point]",
Cc1ccc(OCc2nnc(SCC(=O)c3ccccc3)n2Cc2ccco2)cc1,active: 18.4 µM,
COc1ccc(-c2nc3cnc(N(C)C)nc3n(Cc3ccc(F)cc3)c2=O)cc1,inactive,
COc1cc(/C=C/C(=O)O)cc(S(=O)(=O)N2CCCc3ccccc32)c1OC,"inconclusive [inhibitor, single point]",
N=c1nc(-c2ccccc2)n(-c2ccccc2)s1,"inconclusive [inhibitor, single point]",
CCn1nc(C)cc1-c1nnc(Sc2ncc([N+](=O)[O-])s2)n1C,active: 0.58 µM,
CCOC(=O)c1ccc(NC(=O)N2CCCCC2)cc1,inactive,
O=C(CCNC(=O)c1ccccc1Cl)Nc1nc(-c2ccc(F)cc2)cs1,"inconclusive [inhibitor, single point]",
COc1ccccc1CNS(=O)(=O)CCNC1CC1,inactive,
CC(=O)C1=C(C)N(Cc2ccccc2)C(=O)N[C@H]1c1cccs1,inactive,
COc1cc(OC)cc(C(=O)OCC(=O)NC2CCCCCCC2)c1,"inconclusive [inhibitor, single point]",
O=C(N/N=C/c1ccc(O)c2ncccc12)c1cccc(Br)c1,active: 4.61 µM,
COc1ccc(CCNC(=O)c2ccc3c(c2)N(Cc2cccc(Cl)c2)C(=O)c2ccccc2S3=O)cc1OC (stereo unspecified),"inconclusive [inhibitor, partial curve, poor fit]",
O=C(CN1C(=O)C2C3C=CC(C3)C2C1=O)OCC(=O)c1ccc(Br)cc1 (stereo unspecified),inactive,
Cc1nnc2ccc(-c3cccc(NC(=O)c4ccco4)c3)nn12,"inconclusive [inhibitor, partial curve]",
COc1ccc(C(=O)c2c3ccc(C(F)(F)F)cc3[n+]([O-])n2CCCC(N)=O)cc1,inactive,
Cc1cccc(CC(=O)NCCc2sc3nc(-c4ccc(F)cc4)nn3c2C)c1,"inconclusive [inhibitor, single point]",
